From PubChem BioAssay AID760 (NMMLSC, 2007)
Screen size: about 190,000 compounds; about 360 (0.19%) were called active. This list was built around the results that the source calls inconclusive (neither active nor inactive); the mix of calls is not that of the screen.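 How the source made its calls: active means GTP binding activity at least 20 points away from 100%, either lowered or raised; inconclusive means signal likely due to the compound's own green fluorescence; inactive means the rest.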

molecular target: Ras-related protein Rab-2A (Canis lupus familiaris) (UniProt P61105); assay: Rab2 wt fluorescent GTP binding changes, either direction – biochemical, dog, bead-based flow cytometry, multiplex, primary screen (AID 760); conditions: GST-Rab2 wt beads, Bodipy-GTP binding, at 10 µM;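 further: 0% = beads with excess unlabeled GTP and 100% = no-compound control corrected for plate trend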

Row | Structure (SMILES) | GTP binding activity
1 | O=C(O)C1=C[C@H](c2ccc(Br)cc2)C[C@H](OCc2ccc(CO)cc2)O1 | active: 74%
2 | Cc1nnc(SCC(=O)Nc2nc(-c3ccc(F)cc3)cs2)[nH]c1=O | inconclusive: 86%
3 | N#C/C(=C(/O)CN1CCOCC1)c1nc(-c2ccccc2)cs1 | inconclusive: 104%
4 | Cc1ccc[n+](CC(=O)Nc2cccc([N+](=O)[O-])c2)c1 | inconclusive: 95%
5 | O=C(c1cc(-c2ccccc2)n[nH]1)N1CCc2c([nH]c3ccccc23)C1c1ccccn1 (stereo unspecified) | inactive: 98%
6 | CCNS(=O)(=O)c1ccc(CCC(=O)NCc2ccc(C)cc2)cc1 | inconclusive: 96%
7 | CCOc1ccc(CC(=O)NNC(=S)Nc2ccccc2)cc1Br | inconclusive: 97%
8 | COc1ccc(N2C(=O)C3NN=C(C(=O)OCc4ccccc4)C3C2=O)cc1 (stereo unspecified) | inconclusive: 94%
9 | COc1ccc2o/c(=N/NC(=O)c3cccs3)c(C(N)=O)cc2c1 | active: 61%
10 | Cc1oc(-c2ccccc2Cl)nc1CN1CCCN(C(=O)c2ccco2)CC1 | inconclusive: 94%
11 | Cc1cccc(N=Cc2[nH]c3ccc(Br)c(Cl)c3c2O)c1 | inconclusive: 171%
12 | COc1ccc(/C=N\NC(=O)c2cc(O)c(O)c(O)c2)cc1CN1CCN(c2ccc(F)cc2)CC1 | inconclusive: 91%
13 | Cc1cccc(OCC(=O)N2CCN(C(=O)c3ccco3)CC2)c1 | inactive: 97%
14 | COC(=O)C1=C(C)N(c2ccccc2)C(=S)NC1c1ccccc1C(F)(F)F (stereo unspecified) | inconclusive: 89%
15 | C#CC1(NC(=O)NC(C)C)CCCCC1 | inactive: 103%
16 | Cc1cc(OCC(=O)NC2CCN(C)CC2)ccc1[N+](=O)[O-] | inactive: 98%
17 | CC(=O)c1ccc(NC(=O)C(=O)c2cn(CC(=O)N3CCCCC3)c3ccccc23)cc1 | inactive: 98%
18 | Nc1cccnc1Sc1cc(Cl)c(Cl)cc1Cl | inconclusive: 92%
19 | CC(=O)N1CCC(N(CCN2CCOCC2)C(=S)Nc2cc(C)ccc2C)CC1 | inconclusive: 100%
20 | CC(C)NC(=O)COC(=O)c1ccccc1Oc1ccccc1 | inconclusive: 103%
21 | COC(=O)c1cc(=O)c2c([N+](=O)[O-])ccc(OC)c2o1 | inconclusive: 89%
22 | CSc1cccc(NC(=S)N(CCN(C)C)C(C)c2ccccn2)c1 (stereo unspecified) | inconclusive: 94%
23 | COc1cc(/C=N/Nc2ccc(F)cc2F)cc(OC)c1OC | inactive: 97%

Row | Structure (SMILES) | GTP binding activity
24 | Cc1nn2c(N)csc2nc1=O | inconclusive: 65%
25 | O=C(NCCO)Nc1ccc2nc(-c3ccco3)c(-c3ccco3)nc2c1 | inconclusive: 81%
26 | CC(Nn1cnnc1)c1cc(Cl)ccc1O (stereo unspecified) | inconclusive: 84%
27 | Cc1cc(C)cc(NC(=O)C2CCCN2/C=C/C(=O)C(F)(F)F)c1 (stereo unspecified) | inactive: 105%
28 | O=C(COC(=O)CNS(=O)(=O)c1ccccc1)Nc1ccc(Cl)cn1 | inconclusive: 104%
29 | O=C(NC1CCCC1)C1CC(=O)N(C2CCCCCCC2)C1 (stereo unspecified) | inconclusive: 100%
30 | CCOC(=O)c1c(C)[nH]c(C)c1C(=O)COC(=O)c1ccc(Cl)c(S(=O)(=O)NCc2ccccc2)c1 | inactive: 95%
31 | COc1ccc(C2CC3CC(c4ccccc4)N2O3)cc1 (stereo unspecified) | inconclusive: 115%
32 | COc1ccc2cc(CN(Cc3ccco3)C(=S)NCC3CCCO3)c(=O)[nH]c2c1 (stereo unspecified) | inconclusive: 95%
33 | O=C1N(c2cccc3ccccc23)C(c2ccccc2)N2CCCN12 (stereo unspecified) | inconclusive: 103%
34 | COc1cc(C(=O)OCC(=O)Nc2ccc3c(c2)OC(F)(F)O3)ccc1OCc1c(C)noc1C | active: 40%
35 | CCCOc1ccc(N2C(=O)CC(SCCN)C2=O)cc1 (stereo unspecified) | inconclusive: 102%
36 | COc1ccc(CNC(=O)c2ccccc2C(=O)O)cc1 | inactive: 102%
37 | O=C(c1cc(F)ccc1F)C1CCCN(C(=O)CCc2cnccn2)C1 (stereo unspecified) | inconclusive: 95%
38 | CCC(=O)Oc1ccc(C(=O)Nc2ccc3c(c2)C(=O)N(C2CCCCC2)C3=O)cc1 | inconclusive: 100%
39 | Fc1ccc(CSc2ccc3nnc(-c4cccnc4)n3n2)cc1 | inconclusive: 84%
40 | CC(C)CNC(=O)COC(=O)CNC(=O)c1cc(Cl)cc([N+](=O)[O-])c1 | inconclusive: 98%
41 | C=CCn1c(O)c(N=NC(=O)c2ccccc2NS(=O)(=O)c2cccs2)c2ccccc21 | inactive: 85%
42 | CCOC(=O)COc1ccc(Br)cc1/C=C/c1[nH]c(=O)[nH]c(=O)c1[N+](=O)[O-] | inactive: 92%
43 | COc1ccc(-c2nc(C#N)c(N3CCN(c4ccccc4)CC3)o2)cc1 | inconclusive: 92%
44 | Cc1ccc(OCCSc2nc(N)cc(N)n2)cc1 | inconclusive: 86%
45 | CC(=O)N1CCC(N(CCCOC(C)C)C(=O)Nc2ccc(C)c(C)c2)CC1 | inconclusive: 91%
46 | CCOc1ccc(NC(=S)N2CCN(CCN3C(=O)c4cccc5cccc(c45)C3=O)CC2)cc1 | inconclusive: 89%

Row | Structure (SMILES) | GTP binding activity
47 | CCOc1cc(-c2nc(-c3ccccc3OC)no2)cc(OCC)c1OCC | inconclusive: 106%
48 | N#Cc1cc(-c2ccccc2)nnc1Oc1ccccc1Cl | inconclusive: 91%
49 | COC(=O)c1cc(Cl)c(NC(=O)c2cc3ccccc3o2)cc1OC | inactive: 99%
50 | COc1cccc(C2CC(c3ccccc3)=NN2S(=O)(=O)c2ccc(C)cc2)c1OC (stereo unspecified) | inconclusive: 160%
51 | COC(=O)c1c(NC(=O)COC(=O)Cn2cnc3ccccc32)sc2c1CCCC2 | inconclusive: 91%
52 | Cc1nn(CC(=O)NCc2cccnc2)c(=O)c2ccccc12 | inconclusive: 81%
53 | Cc1cc(C(=O)CSc2nn3c(=O)c(C(C)(C)C)nnc3s2)c(C)n1C1CC1 | inconclusive: 96%
54 | CNC(=S)N=Nc1c(O)[nH]c2ccccc12 | active: 72%
55 | O=S1(=O)CCN(Cc2cccc(Cl)c2)CC1 | inconclusive: 102%
56 | Cc1ccc2sc(N(CCCN(C)C)C(=O)c3ccc(Br)s3)nc2c1C | inactive: 97%
57 | CC1C(=O)CCN(C(C)C)C1C (stereo unspecified) | inconclusive: 103%
58 | CCOc1ccc(NC(=O)c2cc3c(C)nc4ccccc4c3o2)cc1 | inconclusive: 93%
59 | C[C@H](NC(=O)Nc1ccc2c(c1)OCCO2)C(=O)O | inconclusive: 105%
60 | CC(=O)c1sc(NC(=O)C(C)C)nc1C | inconclusive: 103%
61 | Cc1ccc(C2C(C=Nc3c(C)n(C)n(-c4ccccc4)c3=O)=C(c3ccccc3)Oc3ccccc32)cc1 (stereo unspecified) | inactive: 97%
62 | Cc1ccc(NC(=O)c2ccc3c(c2)C(=O)N(CC2CCCO2)C3=O)cc1C (stereo unspecified) | inconclusive: 93%
63 | CC(=O)Nc1nonc1-c1nc2ccccc2n1Cc1nnc(C)o1 | inconclusive: 103%
64 | O=C(Nc1cccc(Cl)c1)N1CCN(c2ncccn2)CC1 | inactive: 111%
65 | COC(=O)[C@@H](NC(=O)O[C@@H]1C(=O)c2ccc(OC)cc2O[C@H]1c1cccc(C(F)(F)F)c1)C(C)C | inactive: 98%
66 | COC(=O)c1ccc(C)c(NC(=O)CCc2ccc(OC)c(OC)c2)c1 | inactive: 100%
67 | CCS(=O)(=O)N1CCN(c2ccc([N+](=O)[O-])c(NCC3CCCO3)c2)CC1 (stereo unspecified) | inconclusive: 95%
68 | CCOc1c(O)ccc(/C=C2\SC(=S)NC2=O)c1[N+](=O)[O-] | inconclusive: 78%
69 | Cc1[nH]n(-c2ncc(-c3ccccc3)s2)c(=O)c1C(c1ccc(Br)cc1)C(C#N)C#N (stereo unspecified) | inactive: 89%

Row | Structure (SMILES) | GTP binding activity
70 | O=C1NC(=Nc2ccc(O)cc2)S/C1=C/c1ccco1 | inactive: 93%
71 | CCOC(=O)c1c(C)[nH]c(C(=O)COC(=O)C(C)N2C(=O)C3CCCCC3C2=O)c1C (stereo unspecified) | inactive: 97%
72 | Cc1ccc(S(=O)(=O)n2nc(OC(=O)C3CCCCC3)cc2N)cc1 | inconclusive: 102%
73 | CCOc1ccc(Cn2c3ccc(OC)cc3c3nc4ccccc4nc32)cc1 | active: 130% [activator]
74 | Cc1c(Br)c(C(F)(F)F)nn1CC(=O)N1CCCC1 | inconclusive: 90%
75 | CCc1ccc2c(c1)/C(=N/OC)C(=O)N2 | inactive: 98%
76 | Brc1ccc(Cn2c(-c3cncs3)nc3ccccc32)cc1 | inconclusive: 101%
77 | COCc1cc(=O)n2[nH]c(SCc3ccccc3)nc2n1 | inconclusive: 103%
78 | Cn1c(=O)cc(SCC(=O)NCCCN2CCOCC2)c2ccc(Cl)cc21 | inconclusive: 102%
79 | CCCN1C(=O)/C(=C\C=C2\N(CC)c3ccccc3C2(C)C)SC1=S | inconclusive: 157%
80 | Cc1cc(C(F)(F)F)c(C#N)c(SCC(=O)Nc2nc3ccccc3s2)n1 | inconclusive: 140%
81 | CCCCn1c(=O)c(CCC(=O)OCC(=O)NCc2ccc(OC)c(OC)c2)nc2ccccc21 | inconclusive: 93%
82 | COc1cc(/C=C2/C(=O)NN(c3cccc(F)c3)C2=O)ccc1OC(=O)c1ccco1 | inconclusive: 88%
83 | S=C(Nc1ccc(Cl)c(Cl)c1)NC1CCCCC1 | inconclusive: 107%
84 | O=C(C1CCCN(Cc2cccc(F)c2)C1)N1CCCCC1 (stereo unspecified) | inactive: 103%
85 | COC(=O)c1sccc1NC(=S)N1CCN(c2ccccc2)CC1 | inconclusive: 92%
86 | Cc1[nH]nc2c1C(c1ccc(Cl)cc1)C(C#N)=C(N)O2 (stereo unspecified) | inconclusive: 91%
87 | C=CCn1c(CNc2ccccc2)nnc1SCC(=O)N/N=C/c1ccc(O)cc1O | inconclusive: 91%
88 | Cc1ccc(-n2c(SCC(=O)Nc3ccc4c5c(cccc35)CC4)nc(O)c(C)c2=O)cc1 | inconclusive: 92%
89 | Cc1ccc(/C(N)=N/OC(=O)CCC2CCCCC2)cc1 | inactive: 114%
90 | O=C(O)CC(NC(=O)c1sc2ccccc2c1Cl)c1ccc(OC2CCCC2)cc1 (stereo unspecified) | inconclusive: 79%
91 | O=C(N/N=C/c1ccc[nH]1)c1ccc(O)cc1 | inconclusive: 93%
